Measurements reported in PubChem BioAssay AID488969 (Vanderbilt High Throughput Screening Facility, 2010).
In all, about 110,000 compounds were measured (“z-score”: median about -0.1, highest 2% from about 2 on). Some of the results follow. Active and inactive are the calls of the source.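 Rule for the calls: active = z-score in the third read window above 3 or below -3; inactive = the rest.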

Each compound was assayed against Metabotropic glutamate receptor 8 (Rattus norvegicus) (UniProt P70579) (assay: mGluR8 Gi/Go-coupled signaling modulation – cell-based, rat, thallium flux, HTS, primary screen (AID 488969)). Details: HEK293 rat mGluR8, GIRK (G protein-gated inwardly rectifying potassium channel) thallium flux, FluoZin2; at 10 µM; stronger effect = higher value; submaximal glutamate (EC20) added with thallium.
UniProt P70579, sequence (P70579 whole entry, looked up): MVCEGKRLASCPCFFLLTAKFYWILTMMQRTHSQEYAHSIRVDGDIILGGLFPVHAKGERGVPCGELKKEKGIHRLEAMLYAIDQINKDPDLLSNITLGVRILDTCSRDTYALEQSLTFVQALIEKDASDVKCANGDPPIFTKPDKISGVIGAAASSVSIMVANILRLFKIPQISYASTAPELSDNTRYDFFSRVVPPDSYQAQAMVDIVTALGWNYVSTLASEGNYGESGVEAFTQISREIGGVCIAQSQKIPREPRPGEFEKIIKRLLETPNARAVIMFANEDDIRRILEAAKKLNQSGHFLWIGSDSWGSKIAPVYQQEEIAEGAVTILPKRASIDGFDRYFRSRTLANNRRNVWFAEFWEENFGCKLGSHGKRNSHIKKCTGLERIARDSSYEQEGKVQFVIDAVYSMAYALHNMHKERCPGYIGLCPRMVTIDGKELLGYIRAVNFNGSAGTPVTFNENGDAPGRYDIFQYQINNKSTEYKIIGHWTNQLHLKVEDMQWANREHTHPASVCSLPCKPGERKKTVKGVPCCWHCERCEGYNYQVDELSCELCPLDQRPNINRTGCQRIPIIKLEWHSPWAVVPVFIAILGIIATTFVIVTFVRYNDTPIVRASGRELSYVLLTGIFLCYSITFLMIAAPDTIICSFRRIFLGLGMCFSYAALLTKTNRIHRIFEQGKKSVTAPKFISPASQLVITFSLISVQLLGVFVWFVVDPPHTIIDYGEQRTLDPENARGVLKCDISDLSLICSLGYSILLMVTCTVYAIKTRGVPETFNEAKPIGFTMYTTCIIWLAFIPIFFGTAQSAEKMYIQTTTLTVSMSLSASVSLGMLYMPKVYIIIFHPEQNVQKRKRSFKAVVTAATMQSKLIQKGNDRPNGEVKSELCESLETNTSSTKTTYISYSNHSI
Compound `COC(=O)c1ccc(/C=N/N2CCN(Cc3ccccc3)CC2)cc1` has a z-score of -0.196. `OCCCCNCc1ccc(OCc2ccccc2)cc1` showed a z-score of 0.0747. In the case of `CCOC(=O)c1c(NC(=O)CN2CCCCC2)sc2c1CCCC2O` (stereo not drawn), the z-score is reported as -1.23. `Cc1ccc(-c2ccc(CCC(=O)O)n2NC(N)=S)cc1` showed a z-score of 0.29. `Cc1cc(/C=C(\C#N)C(=O)NCCc2c[nH]c3ccccc23)c(C)n1C` showed a z-score of -0.2. In the case of `O=C(Cn1c(-c2cncs2)nc2ccccc21)NCCc1ccccc1`, the z-score is reported as 0.156. With `CC(=O)Nc1c(O)[nH]c2ccccc12` the z-score was 0.0875. With `CN(C)S(=O)(=O)c1cccc(C(=O)N2CCc3ccccc32)c1` the z-score was 0.344. `N#C/C(=C/c1ccc(Br)s1)C(=O)NCCc1c[nH]c2ccccc12` was tested, and the z-score was -0.112. Work on `O=C(O)c1cccc(-c2nc3ccccc3[nH]2)c1` yielded a z-score of -0.16. `Fc1ccccc1COc1ccc(Br)cc1CNCc1ccncc1` showed a z-score of -0.177. Work on `CC(C)(C)Cc1nc2ccccc2n1CCc1ccccc1` yielded a z-score of -0.203. For `CCCCCCCn1ccc(=N)cc1`, the z-score was -0.268. `Cc1cc(C)n(-c2ccc(N3CCOCC3)nn2)n1` was tested, and the z-score was 0.137. Compound `O=C(CN1CCN(c2ccccn2)CC1)Nc1ccc(Cl)c(C(F)(F)F)c1` has a z-score of 1.94. Compound `Cc1ccc(NC(=O)c2cc(S(=O)(=O)N3CCC4(CC3)OCCO4)ccc2F)cc1` has a z-score of -0.0634. `CC(=O)Nc1nc2ccccc2n1Cc1ccccc1` showed a z-score of 0.74. `CCOC(=O)Cc1csc(NC(=S)NC(=O)c2cccc([N+](=O)[O-])c2)n1` was tested, and the z-score was 0.802. `CCOC(=O)c1ccc(NC(=O)CN(C)S(=O)(=O)c2ccc(OC)cc2)cc1` showed a z-score of -0.199. `COc1ccc(CCNC(=O)c2ccc(NS(=O)(=O)c3c(C)noc3C)cc2)cc1OC` was tested, and the z-score was 0.22. `COC(C(=O)Nc1ccc(S(=O)(=O)Nc2ccc(F)cc2)cc1)c1ccccc1` (stereo not drawn) gave a z-score of -0.241. Compound `CNS(=O)(=O)c1cccc(C(=O)OCC(=O)NCc2ccccc2)c1` has a z-score of -0.447. With `COc1nc(-c2ccccc2)ccc1-c1noc(-c2ccccc2)n1` the z-score was 0.293. In the case of `O=C(Oc1ccccc1)c1ccc(COC(=O)c2cnccn2)cc1`, the z-score is reported as 0.0495. `Cc1nc2c(=O)n(C)c(=O)n(C)c2nc1Cl` showed a z-score of 1.3. `Cc1cccc(C)c1OCc1nnc2c3cnn(C)c3ncn12` showed a z-score of -0.22. Compound `CCOC(=O)c1[nH]c2ccc(F)cc2c1N=C(C)N(CC)CC` has a z-score of -0.0884. In the case of `O=C(CN1CCOCC1)NCCNC(=O)CN1CCOCC1`, the z-score is reported as 0.404. For `Cc1cc(NC(=O)CCCC(=O)N(c2ccccc2)C(C(=O)NC2CCCCC2)c2cccs2)no1` (stereo not drawn), the z-score was 0.689. With `CCCn1c(C)cc(C(=O)COc2ccc(C)nc2[N+](=O)[O-])c1C` the z-score was -0.135. `CCOc1ccc(C2c3c(oc4cc(C)c(C)cc4c3=O)C(=O)N2CCCN(C)C)cc1OC` (stereo not drawn) gave a z-score of 0.756. Compound `Cc1cc(C)n(-c2nc(NC(C)C)nc(NC(C)C)n2)n1` has a z-score of -1.17. With `Cc1cccc(C(=O)Nc2ccc(CC(=O)O)cc2)c1` the z-score was -0.175. `CC(=O)Nc1nc(COc2ccccc2)cs1` was tested, and the z-score was -0.159. For `O=S(=O)(CC12C3C4C5C1C2C(Br)(C43)C51OCCO1)c1ccccc1` (stereo not drawn), the z-score was -0.0862. `CCOc1ccc(C2c3cc(OC)c(OC)cc3CC(=O)N2c2ccc(OC)cc2)cc1` (stereo not drawn) was tested, and the z-score was -0.282. With `COc1ccc(-c2cnnc(N/N=C/C(C)=C/c3ccccc3)n2)cc1` the z-score was 0.254. `CC1CCCC(C)N1CC(O)COCC1COc2ccccc2O1` (stereo not drawn) was tested, and the z-score was -0.0598. `COc1ccc(C(C)=O)cc1CSc1nnc(Nc2ccccc2)s1` gave a z-score of -0.404. Compound `COc1ccc(OC)c(C2CC(=O)N3CN(c4cccc(Cl)c4)CSC3=C2C#N)c1` (stereo not drawn) has a z-score of 0.205. With `CCC1(C)CC(c2csc(N)n2)CCO1` (stereo not drawn) the z-score was 2.98. `COc1ccc(/C=C/C(=O)c2ccccc2O)cc1CN1CCOCC1` gave a z-score of 0.0524. With `CCCCC(CC)Cn1c(N)c(C#N)c2nc3ccccc3nc21` (stereo not drawn) the z-score was -0.274. With `CS(=O)(=O)N(CC(N)=O)c1ccc2c(c1)OCO2` the z-score was -0.00195. Compound `COc1ccc(C(CC(=O)O)NS(=O)(=O)c2ccc(C)cc2)cc1` (stereo not drawn) has a z-score of 0.145. In the case of `CC1SC(=NC(=O)C(C)N2C(=O)c3ccccc3C2=O)NC1=O` (stereo not drawn), the z-score is reported as 0.0917. In the case of `CC(C)=C(NC(=O)c1ccccc1)C(=O)N/N=C(\C)c1ccccc1O`, the z-score is reported as -0.0548. In the case of `COc1ccc(-n2ncc3c(=O)n(CC(=O)OCc4ccccc4)cnc32)cc1`, the z-score is reported as -0.323. In the case of `COc1cc(NC(=O)COC(=O)CNC(=O)c2ccc(Cl)cc2)c(C)cc1[N+](=O)[O-]`, the z-score is reported as -0.644. `COc1cccc(O[C@@H]2O[C@@H]3COC(C)(C)O[C@H]3[C@H](O)[C@H]2NC(C)=O)c1` gave a z-score of -0.144. In the case of `CCOc1ccc(C(=O)CCC(=O)O)cc1`, the z-score is reported as -0.338. Compound `CC(=O)Nc1ccccc1OCC(=O)NC(C)c1ccc(F)cc1` (stereo not drawn) has a z-score of -0.0422. `CSc1nnc(-c2ccc(F)cc2)o1` showed a z-score of 0.446. `CCOC(=O)/C(=C/Nc1ccccc1)[N+](=O)[O-]` was tested, and the z-score was -0.385. `CC(C)(C)CC(C)(C)NCC(O)COc1c(F)cc(Br)cc1F` (stereo not drawn) was tested, and the z-score was active: 3.25. Compound `COc1ccc(OC)c(NC(=O)CSc2nnnn2-c2ccc3c(c2)OCO3)c1` has a z-score of -0.256. For `O=C(Nc1nc(-c2cccs2)c(-c2cccs2)s1)C1(c2ccccc2)CC1`, the z-score was -0.247. `O=C(COC(=O)c1ccc(CNS(=O)(=O)c2ccc(F)c(Cl)c2)cc1)NCC1CCCCC1` was tested, and the z-score was -0.324. Work on `O=C(OCCNC(=O)c1ccc2ccccc2n1)c1cccnc1` yielded a z-score of 0.0581. `Cc1ccc(S(=O)(=O)N2CCN(Cc3ccccc3)CC2)c(C)c1N(C)S(=O)(=O)c1ccccc1` showed a z-score of -0.0147. For `O=S(=O)(c1ccc2ccccc2c1)N1CCC(c2nc(-c3ccncc3)no2)CC1`, the z-score was 0.107. For `CCCCNC(=O)CSc1nc2ccccc2n1S(=O)(=O)c1ccc(Cl)cc1`, the z-score was -0.0179. `O=C(COc1ccc(Br)cc1)N1CCCCCC1` was tested, and the z-score was -0.191. With `O=C(N/N=C/c1ccc2c(c1)OCO2)c1cc(-c2ccccc2)nc2ccccc12` the z-score was 0.6. For `COc1ccc(-c2[nH]c(-c3ccc(C)cc3)nc2SCC(=O)Nc2nccs2)cc1`, the z-score was -0.557. Work on `O=C(N/N=C/c1ccc(COc2ccc(Br)cc2)o1)c1ccco1` yielded a z-score of -0.299. `CCCOc1ccc(N2C(=O)CC(N(CCc3ccc(OC)cc3)C(=O)c3cccc(F)c3)C2=O)cc1` (stereo not drawn) gave a z-score of -0.214. With `CNS(=O)(=O)c1cccc(C(=O)Nc2cccnc2)c1` the z-score was -0.0126. Work on `OC(COCC1CC=CCC1)Cn1cnc2ccccc21` (stereo not drawn) yielded a z-score of 0.36. `NC(=O)c1ccccc1NC(=O)CN1CCOCC1` was tested, and the z-score was 0.829. `CCC(=O)Nc1nc2ccc(S(C)(=O)=O)cc2s1` gave a z-score of 0.244. `Cc1cccc2cc(CN(Cc3ccco3)C(c3nnnn3CCc3ccccc3)C(C)C)c(=O)[nH]c12` (stereo not drawn) gave a z-score of -0.514. `CCc1nnc(NC(=O)CSc2nnc(-c3ccncc3)n2C)s1` showed a z-score of -1.78. `CCc1cccc(C)c1NC(=O)CN(C)Cc1cccc(F)c1` was tested, and the z-score was -0.571. With `Cc1ccc(S(=O)(=O)N2CCC(C(=O)NC3CCCCCC3)CC2)cc1` the z-score was -0.0732. Compound `CCN(Cc1ccccc1)Cc1cccc([N+](=O)[O-])c1` has a z-score of -0.393. `O=C(CCCSc1nc2ccccc2[nH]1)NCc1ccccc1` gave a z-score of -0.307. In the case of `CCc1ccc(N(CC(=O)NC2CCCC2)S(=O)(=O)c2c(C)noc2C)cc1`, the z-score is reported as -0.269. Work on `CN1C(=O)c2cccc(NC(=O)Cc3ccccc3)c2C1=O` yielded a z-score of -0.224. With `CC(C)CNC(=S)NNC(=O)c1ccco1` the z-score was -0.0344. For `CCC(=O)N1CCc2cc(S(=O)(=O)NCCN3CCC(C)CC3)ccc21`, the z-score was 0.0953. Work on `CCN(C(=S)NC(=O)CCc1ccccc1)c1ccccc1` yielded a z-score of 1.5. `CCCOc1ccc(/C(CC)=N/NC(=O)C2(C)CC2(Br)Br)cc1` (stereo not drawn) showed a z-score of -0.0774. Compound `COc1cccc(NC(=O)c2ccc3snnc3c2)c1` has a z-score of 0.779. `COc1ccc(C)cc1NC(=O)c1cc2ccccc2o1` was tested, and the z-score was 0.00863. `Cc1cc(C)n(CCSCC(=O)O)n1` gave a z-score of 0.237. Work on `O/N=C1\CCCc2oc3c(c21)CCCC3` yielded a z-score of -0.00941. `CCC(C)C(=O)N1c2ccccc2C(=C2SC(C(=O)OC)=C(C(=O)OC)S2)C(=S)C1(C)C` (stereo not drawn) gave a z-score of -0.158. Work on `C/C(N)=C(/C#N)C(=O)CSc1nc2cc(Cl)ccc2s1` yielded a z-score of 1.39. Work on `COc1ccc(NC(=O)CSc2nnc(-c3ccccc3C)n2N)cc1` yielded a z-score of 0.119. Work on `CCCNC(=O)c1ccc(-c2nc3ccccc3s2)s1` yielded a z-score of -0.0895. For `CCN(CC(=O)Nc1ccc2c(c1)CCC2)Cc1nc2ccccc2c(=O)[nH]1`, the z-score was -0.577. Compound `Nc1nnc(SCc2ccc(F)cc2Cl)s1` has a z-score of 0.48. `CN(C)c1ncc(S(=O)(=O)c2ccc(Cl)cc2)c(-c2ccc(Cl)cc2Cl)n1` gave a z-score of -0.12. Compound `CCOc1cc(S(=O)(=O)NCc2ccco2)c(OCC)cc1-n1cnnn1` has a z-score of -0.809. For `COc1nc(C)ccc1-c1noc(-c2ccco2)n1`, the z-score was 0.398. For `CN(C)CCCOC(=O)COc1ccc(C(C)(C)C)cc1`, the z-score was 0.0363. With `COc1ccc(-c2nnn(CC(=O)N(Cc3ccc(F)cc3)C(C(=O)NC3CCCC3)c3ccc(F)cc3)n2)cc1` (stereo not drawn) the z-score was -0.171. `Cc1ccc(C)n1NC(=O)c1ccc(Cl)cc1Cl` gave a z-score of 0.557. With `O=C(Cn1cnc2ccccc2c1=O)Nc1ccc2c(c1)CCC2` the z-score was 0.108. In the case of `Nc1ccc(N2CCN(c3ccc(Cl)c(Cl)c3)CC2)cc1`, the z-score is reported as 0.112. `CCOC(=O)c1ccc(NC(=S)NCCc2ccccc2)cc1` was tested, and the z-score was 0.0663. `CCc1ccc(C(=O)NCc2ccc(Cl)cc2)cc1` gave a z-score of -0.109. `Cc1ccc(C(O)c2nc3ccccc3n2C(C)C)cc1` (stereo not drawn) was tested, and the z-score was -0.553. In the case of `COC(=O)Cc1c(C)c2ccc(OCc3nn[nH]n3)cc2oc1=O`, the z-score is reported as 0.162. `CN1CCN(CC(=O)Nc2nnc(-c3cccs3)s2)CC1` gave a z-score of -0.226. With `CC1(C)CC(=O)C2=C(C1)N(Cc1ccccc1)C(=O)C2(NC(=O)C(C)(C)C)C(F)(F)F` (stereo not drawn) the z-score was -0.00164. In the case of `Cc1c(C(=O)O)c(=S)sn1CCOc1ccccc1`, the z-score is reported as active: -3.63. For `NC(=O)c1cc(N2C(=O)C3CC=CCC3C2=O)ccc1N1CCCCC1` (stereo not drawn), the z-score was -0.704. `O=C(c1ccccc1)N1CC(COc2ccccc2)OC(c2ccco2)O1` (stereo not drawn) gave a z-score of -0.151. `COc1ccc(C(NC(=O)CNC(C)=O)C(=O)Nc2ccc3c(c2)OCCO3)cc1` (stereo not drawn) gave a z-score of -0.0485. Work on `O=C(c1ccccc1)N1CCN(Cc2c[nH]c3ccccc23)CC1` yielded a z-score of 0.433. Work on `COc1cc(OC)cc(-c2nc3ccccc3c(=O)n2OC(=O)c2ccc(Br)cc2)c1` yielded a z-score of -0.716.
